Over roughly 81,000 sequences, “one-hybrid fitness for binding NBS DNA” has its median near -0.1; the highest 2% begin near 0.36. The list shows a part of the results.
B1: Caulobacter ParB omega fusion; a variant is named by its letters at X, in order, B8GW30 (parent)
chain: MESVVVGEPGMSEGRRGLGRGLSALLGEVDAAPAQAPGEQLGGSREAPIEILQRNPDQPRRTFREEDLEDLSNSIREKGVLQPILVRPSPDTAGEYQIVAGERAWRAAQRAGLKTVPIMVRELDDLAVLEIGIIENVQRADLNVLEEALSYKVLMEKFERTQENIAQTIGKSXSHVANXMRLLXLPDEVQSYLVSGELTAXHARAIAAAADPVALAKQIIEGGLSVRETEALARKAPNLSAGKSKGGRPPRVKDTDTQALESDLSSVLGLDVSIDHRGSTGTLTITYATLEQLDDLCNRLTRGI

Variants of: B1
Test: one-hybrid fitness for binding NBS DNA (the Noc-binding site; scaled: cognate 1, non-cognate 0); higher = stronger binding
Settings: with NBS DNA site
Procedure, shortened: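 Caulobacter ParB libraries with four specificity codons randomised were screened by bacterial one-hybrid selection in the E. coli USO strain, using a HIS3 reporter whose site lies 19 bp from the promoter. Selection ran for 48 hours at 37°C on M9 lacking histidine, with 0.1 mM IPTG and 5 mM 3-AT. Plasmids were Illumina-sequenced before and after selection, three replicate libraries were pooled, and variants with under 10 reads were dropped. Fitness is the log change in each variant's read ratio to wild type, rescaled against the cognate and non-cognate sites.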

Variant | one-hybrid fitness for binding NBS DNA
ALPP | ≤ 0.2
DAHG | ≤ 0.2
SWDV | ≤ 0.2
PMQW | ≤ 0.2
ARMG | ≤ 0.2
RVKH | 0.321
GFRR | ≤ 0.2
KSES | ≤ 0.2
DSPY | ≤ 0.2
YGHR | ≤ 0.2
PAWS | ≤ 0.2
PVGY | ≤ 0.2
CWYS | ≤ 0.2
WYNE | ≤ 0.2
SDIL | ≤ 0.2
GIES | ≤ 0.2
KPKL | ≤ 0.2
KKIT | ≤ 0.2
WMST | ≤ 0.2
WYKS | ≤ 0.2
MSDT | ≤ 0.2
SWAI | ≤ 0.2
RYDL | ≤ 0.2
RTWM | ≤ 0.2

Variant | one-hybrid fitness for binding NBS DNA
KCTH | ≤ 0.2
NDAC | ≤ 0.2
EASE | ≤ 0.2
SWHM | ≤ 0.2
GVRN | ≤ 0.2
ISNV | ≤ 0.2
WRDE | ≤ 0.2
NHWI | ≤ 0.2
GVGL | 0.285
EVSC | ≤ 0.2
VTEN | ≤ 0.2
RCNH | 0.311
VKCE | ≤ 0.2
RTDG | ≤ 0.2
QKNS | 0.539
IWGR | ≤ 0.2
CGSS | ≤ 0.2
HHVC | ≤ 0.2
GWCR | ≤ 0.2
ETHG | ≤ 0.2
QTNS | 0.629
AHTS | ≤ 0.2
LLLS | ≤ 0.2
SAPI | ≤ 0.2

Variant | one-hybrid fitness for binding NBS DNA
TATM | ≤ 0.2
HNGR | ≤ 0.2
WYAR | ≤ 0.2
DGAA | ≤ 0.2
ADRI | ≤ 0.2
DGVL | ≤ 0.2
ESSR | ≤ 0.2
RLCI | ≤ 0.2
CKKM | ≤ 0.2
PGHI | ≤ 0.2
DVSY | ≤ 0.2
EKIC | ≤ 0.2
DDWN | ≤ 0.2
KKMD | ≤ 0.2
WWGS | ≤ 0.2
PFSN | ≤ 0.2
EMIG | ≤ 0.2
VNAR | ≤ 0.2
EYKY | ≤ 0.2
LRYA | ≤ 0.2
SAVF | ≤ 0.2
INRM | ≤ 0.2
WGDS | ≤ 0.2
FVGR | ≤ 0.2

Variant | one-hybrid fitness for binding NBS DNA
IAKT | ≤ 0.2
QPLS | ≤ 0.2
GYNP | ≤ 0.2
YPVQ | ≤ 0.2
DYTE | ≤ 0.2
SPQE | ≤ 0.2
CSFV | ≤ 0.2
GIKG | ≤ 0.2
ITTV | ≤ 0.2
RIQW | ≤ 0.2
EKKN | ≤ 0.2
FTNF | ≤ 0.2
MHMI | ≤ 0.2
RVDQ | ≤ 0.2
LNVF | ≤ 0.2
IDNG | ≤ 0.2
CSGR | ≤ 0.2
LHKY | ≤ 0.2
KRKM | 0.253
CCCG | ≤ 0.2
QNDH | ≤ 0.2
HSNY | ≤ 0.2
VCTG | ≤ 0.2
RMFR | 0.348

Variant | one-hybrid fitness for binding NBS DNA
IHWC | ≤ 0.2
WHES | ≤ 0.2
YEPF | ≤ 0.2
EVTD | ≤ 0.2
DRTK | ≤ 0.2
IFPT | ≤ 0.2
HTDS | ≤ 0.2
EGIS | ≤ 0.2
LFSE | ≤ 0.2
AGTM | ≤ 0.2
RMQA | ≤ 0.2
EHRC | ≤ 0.2
LNVM | ≤ 0.2
AYCG | ≤ 0.2
AGTH | ≤ 0.2
AAQG | ≤ 0.2
QHEW | ≤ 0.2
YRMI | ≤ 0.2
FLNC | ≤ 0.2
DRNK | ≤ 0.2
EFMS | ≤ 0.2
TRSE | ≤ 0.2
AYDD | ≤ 0.2
SVYG | ≤ 0.2

Variant | one-hybrid fitness for binding NBS DNA
HKDG | ≤ 0.2
NLQR | ≤ 0.2
HRKM | ≤ 0.2
MWIR | ≤ 0.2
RELA | ≤ 0.2
PPGK | ≤ 0.2
MISF | ≤ 0.2
SCPG | ≤ 0.2
TTNP | ≤ 0.2
NMPC | ≤ 0.2
SLPR | ≤ 0.2
HRSV | ≤ 0.2
HYEC | ≤ 0.2
TKEQ | ≤ 0.2
LMQP | ≤ 0.2
HFNT | ≤ 0.2
SFCH | ≤ 0.2
YCRG | ≤ 0.2
SYMA | ≤ 0.2
KINK | ≤ 0.2
ESER | ≤ 0.2
FGMC | ≤ 0.2
GRQA | ≤ 0.2
HQVG | ≤ 0.2

Variant | one-hybrid fitness for binding NBS DNA
TQKR | 0.305
SMPY | ≤ 0.2
SRPA | ≤ 0.2
ISKM | ≤ 0.2
VYNW | ≤ 0.2
EQRS | ≤ 0.2
EHKT | ≤ 0.2
SCVM | ≤ 0.2
KESL | ≤ 0.2
CSSV | ≤ 0.2
ATSA | ≤ 0.2
VGRL | ≤ 0.2
KACR | ≤ 0.2
DGSE | ≤ 0.2
DGPT | ≤ 0.2
ERET | ≤ 0.2
YTRY | ≤ 0.2
QSKW | 0.279
TYLM | ≤ 0.2
DRQG | ≤ 0.2
FLEF | ≤ 0.2
WSDS | ≤ 0.2
DSTG | ≤ 0.2
LNDG | ≤ 0.2

Variant | one-hybrid fitness for binding NBS DNA
KSRC | ≤ 0.2
DTHL | ≤ 0.2
RRYA | 0.684
RPPH | ≤ 0.2
ARPS | ≤ 0.2
LAKN | ≤ 0.2
CKPG | ≤ 0.2
QHLG | ≤ 0.2
YTWT | ≤ 0.2
DHTS | ≤ 0.2
TAFV | ≤ 0.2
RWWA | ≤ 0.2
ITVT | ≤ 0.2
LSKW | ≤ 0.2
QMLG | ≤ 0.2
NASK | ≤ 0.2
PEDR | ≤ 0.2
NNSA | ≤ 0.2
YRAK | ≤ 0.2
PQVK | ≤ 0.2
FMHR | ≤ 0.2
QRAD | 0.25
RQAM | ≤ 0.2
RWPN | ≤ 0.2

Variant | one-hybrid fitness for binding NBS DNA
QVYA | ≤ 0.2
QIVG | ≤ 0.2
GVAF | ≤ 0.2
WLDS | ≤ 0.2
MVMG | ≤ 0.2
PIVY | ≤ 0.2
CPAG | ≤ 0.2
PFET | ≤ 0.2
PLDM | ≤ 0.2
LDYD | ≤ 0.2
PHYR | ≤ 0.2
TMKA | ≤ 0.2
LALG | ≤ 0.2
KCCG | ≤ 0.2
NYVV | ≤ 0.2
SATK | ≤ 0.2
LRTF | ≤ 0.2
EDCE | ≤ 0.2
THSL | ≤ 0.2
MLGY | ≤ 0.2
RPLH | ≤ 0.2
ARNE | ≤ 0.2
KHRY | ≤ 0.2
LEGR | ≤ 0.2

Variant | one-hybrid fitness for binding NBS DNA
DATH | ≤ 0.2
GLPA | ≤ 0.2
KRRW | ≤ 0.2
RADY | ≤ 0.2
EDRM | ≤ 0.2
WSLP | ≤ 0.2
AGDR | ≤ 0.2
ARWY | ≤ 0.2
DPRF | ≤ 0.2
AWHI | ≤ 0.2
QTIW | ≤ 0.2
RTEF | ≤ 0.2
EHKG | ≤ 0.2
SFYN | ≤ 0.2
QECS | ≤ 0.2
RRIV | 0.229
YDGP | ≤ 0.2
PKIR | ≤ 0.2
YVPF | ≤ 0.2
QNGS | ≤ 0.2
QSKV | 0.398
YDTE | ≤ 0.2
QVWD | ≤ 0.2
IRNH | ≤ 0.2

Variant | one-hybrid fitness for binding NBS DNA
VTAC | ≤ 0.2
AGAD | ≤ 0.2
QNSD | ≤ 0.2
RTKI | 0.243
HRDK | ≤ 0.2
WLQA | ≤ 0.2
HPRV | ≤ 0.2
RVIW | ≤ 0.2
ETAG | ≤ 0.2
DAPW | ≤ 0.2
VGSE | ≤ 0.2
IAHS | ≤ 0.2
DANL | ≤ 0.2
HLRW | ≤ 0.2
PKCR | ≤ 0.2
RFSE | ≤ 0.2
IWPS | ≤ 0.2
LRHC | ≤ 0.2
NIVT | ≤ 0.2
NSSR | ≤ 0.2
NHMC | ≤ 0.2
VRSV | ≤ 0.2
HHYT | ≤ 0.2
NGCG | ≤ 0.2

Variant | one-hybrid fitness for binding NBS DNA
RMMH | ≤ 0.2
RKRK | 0.222
GGNR | ≤ 0.2
VVSI | ≤ 0.2
YGNS | ≤ 0.2
RWQA | ≤ 0.2
CTTD | ≤ 0.2
TEHA | ≤ 0.2
SPKL | ≤ 0.2
VQRS | ≤ 0.2
ARLA | ≤ 0.2
QKLA | 0.206
YRAR | ≤ 0.2
RFHD | ≤ 0.2
QKPK | ≤ 0.2
GLAY | ≤ 0.2
PWNP | ≤ 0.2
CQHV | ≤ 0.2
FRSK | ≤ 0.2
MMNR | ≤ 0.2
TMDF | ≤ 0.2
YKSW | ≤ 0.2
QCQD | ≤ 0.2
SGER | ≤ 0.2

Variant | one-hybrid fitness for binding NBS DNA
QSRE | 0.22
EALC | ≤ 0.2
SSHT | ≤ 0.2
NKCV | ≤ 0.2
YSFV | ≤ 0.2
RCGQ | 0.236
SPAY | ≤ 0.2
DKTC | ≤ 0.2
HGTW | ≤ 0.2
KPMT | ≤ 0.2
VTSV | ≤ 0.2
HLAP | ≤ 0.2
AIYH | ≤ 0.2
QLTW | ≤ 0.2
HPPC | ≤ 0.2
SNTY | ≤ 0.2
STYN | ≤ 0.2
SKWS | ≤ 0.2

Reference: a collection of fitness landscapes (doi:10.1016/j.celrep.2020.107928)
